Paper PMC4336329 (PLoS ONE, 2015)
In all, about 310,000 compounds went through this assay and about 2,200 (0.71%) showed an effect of 50% or more. Effects have a minus sign here. The list shows a part of the results.

biological target: human ether-à-go-go-related gene (hERG) potassium channel (human, UniProt Q12809); test: primary screen, population patch clamp on CHO cells stably expressing hERG
Sequence (Q12809 whole entry, looked up): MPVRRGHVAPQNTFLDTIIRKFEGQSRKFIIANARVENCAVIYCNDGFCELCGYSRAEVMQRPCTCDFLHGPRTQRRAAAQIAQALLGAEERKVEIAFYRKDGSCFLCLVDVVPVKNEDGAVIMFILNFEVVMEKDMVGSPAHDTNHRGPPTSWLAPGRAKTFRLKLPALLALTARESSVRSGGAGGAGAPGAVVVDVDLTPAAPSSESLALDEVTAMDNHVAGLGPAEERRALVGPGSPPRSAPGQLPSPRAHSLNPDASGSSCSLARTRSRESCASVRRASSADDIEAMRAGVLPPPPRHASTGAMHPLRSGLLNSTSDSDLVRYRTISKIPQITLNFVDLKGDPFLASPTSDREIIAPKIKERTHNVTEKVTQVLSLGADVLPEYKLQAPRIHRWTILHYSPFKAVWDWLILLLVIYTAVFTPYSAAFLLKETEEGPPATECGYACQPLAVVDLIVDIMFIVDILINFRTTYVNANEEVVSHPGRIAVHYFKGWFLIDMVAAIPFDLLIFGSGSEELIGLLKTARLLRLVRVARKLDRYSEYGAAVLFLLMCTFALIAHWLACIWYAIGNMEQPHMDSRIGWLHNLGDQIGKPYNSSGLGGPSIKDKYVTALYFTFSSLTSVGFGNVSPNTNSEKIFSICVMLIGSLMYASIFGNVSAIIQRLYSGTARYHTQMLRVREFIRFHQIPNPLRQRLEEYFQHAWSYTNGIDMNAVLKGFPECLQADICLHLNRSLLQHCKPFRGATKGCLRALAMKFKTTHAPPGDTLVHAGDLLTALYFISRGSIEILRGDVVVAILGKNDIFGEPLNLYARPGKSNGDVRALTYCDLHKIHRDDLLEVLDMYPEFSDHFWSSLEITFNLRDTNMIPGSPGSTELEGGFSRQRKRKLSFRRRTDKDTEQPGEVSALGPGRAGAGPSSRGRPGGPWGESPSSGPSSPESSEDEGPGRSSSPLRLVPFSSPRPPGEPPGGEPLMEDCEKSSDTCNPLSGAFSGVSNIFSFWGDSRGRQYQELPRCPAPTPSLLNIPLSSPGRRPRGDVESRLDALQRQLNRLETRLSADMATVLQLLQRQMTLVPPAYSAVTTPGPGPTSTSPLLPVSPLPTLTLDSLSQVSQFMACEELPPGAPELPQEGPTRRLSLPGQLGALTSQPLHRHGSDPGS

SMILES	hERG current change (%, negative = inhibition) at 1uM [%]
COC(=O)N/N=C/c1ccc(-c2cc(Cl)ccc2Cl)o1	-8.49
Cc1ccccc1-n1c(SCC(=O)NCc2cccs2)nnc1-c1ccncc1	3.24
COc1cc2c(cc1OC)[C@@H]1Cc3cc4c(cc3[C@H](C2)N1C)OCO4.Cl	1.43
CS(=O)(=O)N(CC(=O)N1CCOCC1)c1ccc2c(c1)OCO2	17.6
CC(C)N1C(=O)c2ccccc2C1C(=O)NC1CCCCCC1 (centres unmarked)	4.81
CC(C)CC(C(=O)NC(C)(C)C)N(CC1CCCO1)C(=O)c1snc(C(N)=O)c1N (centres unmarked)	10.5
COc1ccc(OCc2cc(C(=O)N(C)C3CCOC3)no2)c(Cl)c1 (centres unmarked)	3.45
Cc1c(Nc2nc(-c3cccc([N+](=O)[O-])c3)cs2)c(=O)n(-c2ccccc2)n1C	8.43
Cc1ccc(C(=O)N2CCCC(N3CCN(c4ccccc4F)CC3)C2)s1 (centres unmarked)	6.32
CCCCN(CC)S(=O)(=O)c1ccc(C(=O)Nc2nnc(-c3cccs3)o2)cc1	3.5
O=C1/C(=C/N(C(=O)c2ccco2)c2ccc(Cl)cc2)Sc2ccccc21	7.25
O=C(NCc1nnc(SCC(=O)N2CCc3ccccc32)o1)c1ccco1	14.2
COc1ccc(C(=O)O/N=C2\CCCc3nonc32)cc1	19.8
CCOC(=O)C1=C(CS(=O)(=O)c2ccc(C)cc2)NC(=O)NC1c1cc(OC)c(O)c(OC)c1 (centres unmarked)	9.43
O=C1C2CC=CCC2C(=O)N1c1n[nH]c(Cc2ccccc2)n1 (centres unmarked)	10.6
Cc1ccc(NC(=O)C/C(N)=N/OC(=O)Nc2cccc(C)c2)cc1	5.89
Cc1ccc(NC(=S)N(C)N)cc1Cl	25.7
Cc1noc(C)c1COc1ccc(C(=O)OCC(=O)N2c3ccccc3NC(=O)C2(C)C)cc1	11.5
CCOC(=O)C1CCN(C(=O)c2ccccc2Oc2ccccc2)CC1	-4.93
O=C(NCc1ccc2c(c1)OCO2)c1ccc(S(=O)(=O)N2CCCCC2)cc1	-3.28
O=C(COC(=O)c1ccc(O)cc1)Nc1ccc2[nH]c(=O)[nH]c2c1	3.85
CNC1=CC(=O)CC(c2ccccc2)C1 (centres unmarked)	12.4

SMILES	hERG current change (%, negative = inhibition) at 1uM [%]
COCCNC(=O)Cc1ccc(Br)cc1	10.2
CCOc1ccc(/C=N/NC(=O)c2cc3c(OC)cc(OC)c(OC)c3[nH]2)cc1	-5.65
CCOC(=O)/C(=C/Nc1ccc(F)c(F)c1)[N+](=O)[O-]	13
CCN(CC)S(=O)(=O)c1cccc(-c2nnc(SCc3nnc(-c4ccccc4)o3)n2C)c1	-32.5
CCOc1ccccc1NC(=O)Cn1[nH]c(=O)c2ccccc2c1=O	14.2
COCCCn1nnnc1SCC(=O)N1CCCC1	-6.33
Cc1ccc2nc(N3CCOCC3)c(C=O)c(=O)n2c1	11.4
CCOc1ccc(/C=N/NC(N)=S)cc1	6.4
CC(=O)C[C@H](O)CC(=O)[C@H]1OC(=O)CC/C=C\Cc2ccccc21	15.5
CCC(CC)C(=O)N1CC(=O)Nc2ccc(F)cc2C1c1ccccc1 (centres unmarked)	6.38
CC(=O)Nc1ccc(Nc2nc(Cl)nc(Nc3ccc(NC(C)=O)cc3)n2)cc1	14.6
COc1ccc(OC)c(NC(=O)C(CCSC)NS(=O)(=O)c2cccs2)c1 (centres unmarked)	-5.09
O=C(c1ccccc1)N(Cc1nc2ccccc2c(=O)[nH]1)C1CCCCC1	6.55
O=C(Nc1nccs1)C1CCCN1S(=O)(=O)c1cccc2cccnc12 (centres unmarked)	4.95
O=C(CN1C(=O)c2ccccc2S1(=O)=O)Nc1ccccc1	-2.85
CCOC(=O)CC1=NS(=O)(=O)c2ccccc2N1	14.9
O=C(NCc1ccc2c(c1)OCO2)C1CCC(CNS(=O)(=O)c2ccccc2)CC1 (centres unmarked)	-0.201
CC[C@@H](C)CN1C(=O)N[C@@H](CCc2ccccc2)C(C(C)=O)=C1C	-1.83
CC(C)NC(=O)N(Cc1ccccc1)Cc1cccs1	12.8
CC(=O)Oc1cccc(/C=N\NC(=O)C(=O)N/N=C/c2cccc(OC(C)=O)c2)c1	8.12
COc1cc(CNCCO)cc(Br)c1OCc1cccs1.Cl	7.27
CCOc1ccccc1N(CC(=O)NC(C)(C)C)C(=O)CCC(=O)Nc1nccs1	6.2

SMILES	hERG current change (%, negative = inhibition) at 1uM [%]
Cc1cccc(C(CC(=O)NCc2ccco2)c2ccccc2)c1O (centres unmarked)	-3.67
CC(=O)Nc1ccc(/C=N/Nc2ccc(C(=O)c3c(C)cc4ccccn34)cc2[N+](=O)[O-])cc1	11.7
C=CCn1c(O)c(N=Nc2nc3ccccc3c(=O)n2-c2ccccc2)c2ccccc21	12.3
CC(NS(=O)(=O)c1c(N)n(C)c(=O)n(C)c1=O)c1ccccc1 (centres unmarked)	21.5
O=C(NCCCCc1ccccc1)c1cccc([N+](=O)[O-])c1	8.9
COCCCNC(=O)c1ccccc1N(Cc1ccccc1)S(=O)(=O)c1ccc(OC)cc1	12.9
O=C(NC12CCC(O)C(SC1)/C2=N/O)c1ccccc1 (centres unmarked)	6.76
CC(C)CNC(=O)CSc1nc2nn(-c3ccccc3)c(=O)c-2c2n1CCCCC2	3.92
Cc1c(C(=O)OCC(=O)NCc2ccccc2)oc2ccccc12	10.9
COc1ccc([N+](=O)[O-])cc1NC(=O)C(C)OC(=O)c1cccnc1 (centres unmarked)	6.16
COc1cc(OC)c2c(=O)cc(-c3cccnc3)oc2c1	8.68
COc1ccc(OC)c(/C=C2\SC(=S)N(NS(=O)(=O)c3ccc(C)cc3)C2=O)c1	11.1
CSCCC(NC(=O)c1ccc([N+](=O)[O-])cc1Cl)C(=O)OCC(=O)C12CC3CC(CC(C3)C1)C2 (centres unmarked)	8.1
COC(=O)[C@@]1(Cc2ccccc2)C=C[C@@H](C)N1C(C)=O	12.1
Cc1onc(-c2ccccc2)c1C(=O)Nc1ccc(S(=O)(=O)N2CCOCC2)cc1	9.01
O=C(CSc1nnc(Cn2c(=O)sc3ccccc32)n1-c1ccccc1)NCC1CCCO1 (centres unmarked)	6.6
S=C(NCc1ccncc1)NC1CCCCC1	7.66
Cc1nc(N2CCN(c3ccccn3)CC2)c2c(C)c(C(=O)Nc3ccc(F)cc3F)sc2n1	-4.3
O=C(O)c1ccccc1OCCOCCOc1ccccc1C(=O)O	12.9
O=c1cc(CO)oc(CN2CCCC2)c1O	-2.54
C/C(=N\NC(=O)COc1cc(C)cc(C)c1)c1ccc(N2CCOCC2)cc1	9.1
CN1CCN(S(=O)(=O)c2ccc(C(=O)Nc3ccccc3)cc2)CC1	-1.43

SMILES	hERG current change (%, negative = inhibition) at 1uM [%]
Cc1cc(N2CCN(c3ccccc3)CC2)n2cc(-c3ccccc3)nc2n1	-16.4
O=C(NCC(c1ccco1)N1CCN(c2ccccc2)CC1)c1ccco1 (centres unmarked)	5.47
Cc1ccc(CN2CCN(/N=C/c3ccc(O)c(O)c3)CC2)cc1	1.38
O=C(CCCOc1ccc(Cl)cc1Cl)N1CCCc2ccccc21	-7.08
CC(C)OCCCNc1ncc2c(n1)CC(c1ccc(N(C)C)cc1)CC2=O (centres unmarked)	1.11
CCCc1cc(C(=O)Nc2ccc(C(=O)OC)cc2)cs1	0.842
N/C(CN1CCCCC1)=N\S(=O)(=O)c1cc(Cl)cc(Cl)c1	14
CCCCCCCCC(=O)NNC(=O)c1c(O)c2ccccc2n(CC)c1=O	14.3
CCC1(c2ccc(F)cc2)NC(=O)N(CC(=O)c2cc(C)n(C3CC3)c2C)C1=O (centres unmarked)	-4.97
Cc1cc(C)cc(N2CCCn3c2nc2c3c(=O)n(CC(=O)OCc3ccccc3)c(=O)n2C)c1	-9.51
Cc1cc(C)n(-c2ncnc3sc4c(c23)CC(C)CC4)n1 (centres unmarked)	34.2
Cc1ccc(C(=O)N(c2ccccn2)C(C)c2ccco2)cc1 (centres unmarked)	4.44
COc1ccccc1Nc1nc(N)nc(CSc2nncn2C)n1	11.2
CCC(OCC(O)CN1CCN(CCN2C(=O)c3cccc4cccc(c34)C2=O)CC1)c1ccccc1.Cl (centres unmarked)	-12
Cc1ccc(C(c2sc3nc(C)nn3c2O)N2CCN(C(=O)c3ccco3)CC2)cc1 (centres unmarked)	-2.74
COc1ccc(-c2nc3ccccc3c(=O)n2N)cc1	-14.3
O=C(N/N=C\c1ccc(-c2ccc([N+](=O)[O-])cc2)o1)c1ccc2c(c1)OCO2	7.6
CC(NCCc1ccc(S(N)(=O)=O)cc1)C(=O)NCCc1ccc(F)cc1.O=C(O)C(=O)O (centres unmarked)	2.89
Cc1ccc(NS(=O)(=O)c2cn(C)c(=O)n(C)c2=O)cc1C	9.08
CCCCN(C(=O)CCCSc1nc2ccccc2[nH]1)c1c(N)n(Cc2ccccc2)c(=O)[nH]c1=O	-13.3
